Results: paper PMC4336329 (PLoS ONE, 2015)
Hit rate of the full screen: of about 310,000 compounds, about 14,000 (4.5%) showed an effect of 50% or more. Effects have a minus sign here. This is one part of the list.

target: human ether-à-go-go-related gene (hERG) potassium channel (human, UniProt Q12809); assay: primary screen, population patch clamp on CHO cells stably expressing hERG
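Further: peak tail current of the secondary pulse compared with the same well before compound.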

Chain of human ether-à-go-go-related gene (hERG) potassium channel (Q12809 whole entry, looked up): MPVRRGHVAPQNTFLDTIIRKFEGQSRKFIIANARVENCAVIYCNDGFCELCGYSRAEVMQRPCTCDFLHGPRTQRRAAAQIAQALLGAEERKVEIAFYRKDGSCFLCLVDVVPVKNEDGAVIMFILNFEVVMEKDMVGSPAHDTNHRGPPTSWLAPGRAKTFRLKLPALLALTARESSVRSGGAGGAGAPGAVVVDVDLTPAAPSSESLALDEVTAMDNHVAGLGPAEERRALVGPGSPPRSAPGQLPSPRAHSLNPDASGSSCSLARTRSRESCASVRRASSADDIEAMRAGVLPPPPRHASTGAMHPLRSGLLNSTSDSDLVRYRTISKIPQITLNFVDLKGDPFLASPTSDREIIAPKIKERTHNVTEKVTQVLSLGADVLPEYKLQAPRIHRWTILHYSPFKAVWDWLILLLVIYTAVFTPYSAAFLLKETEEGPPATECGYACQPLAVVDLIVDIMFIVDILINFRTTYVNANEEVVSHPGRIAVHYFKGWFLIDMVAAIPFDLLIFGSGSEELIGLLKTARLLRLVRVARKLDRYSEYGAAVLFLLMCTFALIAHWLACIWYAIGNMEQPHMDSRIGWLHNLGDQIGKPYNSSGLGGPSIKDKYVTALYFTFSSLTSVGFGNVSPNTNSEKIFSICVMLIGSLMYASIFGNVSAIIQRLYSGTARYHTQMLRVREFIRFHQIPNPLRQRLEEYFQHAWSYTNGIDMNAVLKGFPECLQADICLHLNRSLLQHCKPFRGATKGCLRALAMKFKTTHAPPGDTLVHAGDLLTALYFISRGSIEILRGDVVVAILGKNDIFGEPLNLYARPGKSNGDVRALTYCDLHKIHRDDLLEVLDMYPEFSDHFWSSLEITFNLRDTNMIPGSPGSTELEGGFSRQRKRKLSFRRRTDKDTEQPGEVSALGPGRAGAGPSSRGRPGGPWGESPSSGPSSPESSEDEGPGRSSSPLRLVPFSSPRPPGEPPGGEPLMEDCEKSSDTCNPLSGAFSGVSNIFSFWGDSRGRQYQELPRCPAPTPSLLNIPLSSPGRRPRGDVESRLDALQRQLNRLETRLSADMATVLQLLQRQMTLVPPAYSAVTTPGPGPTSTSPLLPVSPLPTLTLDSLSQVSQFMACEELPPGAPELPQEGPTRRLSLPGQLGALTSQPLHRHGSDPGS

SMILES	hERG current change (%, negative = inhibition) at 10uM [%]
CCCC(=O)NC(c1cccs1)c1cc(Cl)c2cccnc2c1O (stereo not drawn)	-23.8
O=C(CCN1C(=O)/C(=C/c2ccccc2Cl)SC1=S)Nc1ccccn1	2.26
O=C(CCCC(=O)N(CC(=O)NC1CCCC1)Cc1ccccc1)Nc1ccccn1	1.59
O=C(Nc1ccn(Cc2ccc(F)cc2)n1)c1ccncc1	18.3
FC(F)(F)c1nnc(N2CCN(c3ccc(Cl)cc3)CC2)s1	11.1
O=C(Nc1ccc2c(c1)OCCO2)NC1CCCCC1	-13.9
CNC(=O)c1cc(Cl)c(OC)c(OC)c1	11.9
C/C(=C/C(=O)N1CCN(C)CC1)C(=O)O	22.2
CC1CCC(NC(=O)COC(=O)c2n[nH]c(=O)c3ccccc23)CC1 (stereo not drawn)	-13.6
Cc1ccc2c(c1)nnn2C1CCN(S(=O)(=O)c2ccc(C(=O)O)cc2)CC1	19.3
CCOC(=O)C1CCN(CCC(=O)Nc2cccc(Cl)c2C)CC1	-5.48
COc1ccc(Cl)cc1NC(=O)CN(C)C(=O)c1cc2c(F)cccc2s1	-6.32
CCN(CC)S(=O)(=O)c1ccc(N/N=C/c2cccnc2)nc1	-9.7
CC(=O)n1cc([C@H]2C=C(C(=O)N3CCN(Cc4ccc5c(c4)OCO5)CC3)O[C@@H](OCCCCO)C2)c2ccccc21	-32.7
CC(c1nccs1)N(C)c1nc2nonc2nc1N(C)C (stereo not drawn)	-12.6
C#CC[N+](C)(C)CCCCCCCCCC.[Br-]	-38.4
Cc1cccc(C)c1OCc1nc2ccccc2c(=O)n1/N=C/c1c[nH]c2ccccc12	26
C[C@H](NC(=O)c1[nH]cnc1C(=O)Nc1ccc(CNC(=O)OC(C)(C)C)cc1)C(=O)OCc1ccccc1	-1.26
COC(=O)Cn1cnc2c(oc3ccccc32)c1=O	15.2
Cc1nc(S(=O)(=O)c2ccc(Br)cc2)nc2c1CCC2	-8.48
CCCc1[nH]n(-c2ccc([N+](=O)[O-])cc2)c(=O)c1C=NCCc1ccc(OC)c(OC)c1	-19.4
O=C1NC(=O)c2cc([N+](=O)[O-])cc3cccc1c23	4.52
CC[C@H](C)[C@H](NC(N)=O)C(=O)NCCc1ccc(OC)c(OC)c1	20.1
O=C(COC(=O)/C=C/C(=O)OCC(=O)NC12CC3CC(CC(C3)C1)C2)NC12CC3CC(CC(C3)C1)C2	19.3
